Measured values published in PubChem BioAssay AID493208 (National Center for Advancing Translational Sciences (NCATS), 2011).
Among all 44,000 compounds or so, about 340 (0.77%) were called active. Not shown: some 5% with an inconclusive outcome. Calls come from the whole dose curve; as a rule, active = well fitted inhibition curve with a large enough effect; inconclusive = small, poorly fitted or top-dose-only effect; inactive = flat fitted curve, though single readings scatter. The list shows a part of the results.

Test: Acumen qHTS Assay for Inhibitors of the mTORC1 Signaling Pathway in MEF (Tsc2-/-, p53-/-) Cells: Sytravon;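 note: plate controls were DMSO for no effect and rapamycin for full effect; nearly all actives have a fitted effect of over 50% in size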
Details: phospho-rpS6 immunofluorescence/PI, 24 h; series mostly up to 38.3 µM; activity change, negative = inhibition: at the top concentration
Summary of the method: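 Readout is phospho-S6 Alexa 488 signal normalized to PI per well, reported as % active cells with thresholds set from rapamycin (7.5 nM) and DMSO controls. Cells: Tsc2-/-, p53-/- MEFs, 24 hrs compound at 37 C; PI cell number serves as viability.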

Structure (SMILES) | activity change, negative = inhibition
Cc1ccc(C(=O)Nc2nnc(S(=O)(=O)N3CCc4ccccc43)s2)cc1 | inactive: 6.62%
Cc1ccccc1C(=O)Oc1c(Sc2ccccc2)c(C)nn1C(C)(C)C | inactive: 2.05%
CCOc1ccc(NC(=O)c2cnc(Nc3ccccc3OC)c3ccccc23)cc1 | inactive: -16.8%
COc1ccc(CCNC(=O)Cn2ncc3c(=O)oc4ccccc4c32)c(OC)c1 | inactive: 4.58%
COc1ccc(CC(=O)NCc2ccc3c(c2)CCN3C(=O)c2ccc(Cl)cc2)cc1 | inactive: 6.14%
CCc1ccc2oc(-c3cc(NC(=O)c4cccnc4)cc(C)c3O)nc2c1 | inactive: 1.5%
CCOc1ccc(CCNC(=O)CCSCc2ccc(Cl)cc2)cc1OCC | inactive: 5.32%
CCC(=O)N1CCc2cc(Br)cc(S(=O)(=O)N3CCCC(C(=O)Nc4cccc(F)c4)C3)c21 (stereo not given) | inactive: -0.0904%
CCOC(=O)CSc1nc2sc3c(c2c(=O)n1-c1ccccc1)CCC(C(C)(C)C)C3 (stereo not given) | inactive: -0.986%
CC(C)Oc1ccc(CNC(=O)c2cccc(NC(=O)N3CCSc4ncccc43)c2)cc1 | inactive: -1.3%
O=C(Nc1cccc(Br)c1)N1CCC(CN2CCCCCC2)CC1 | inactive: -9.18%
COc1cccc(CNC(=O)CN(c2ccc(C(C)C)cc2)S(=O)(=O)c2c(C)noc2C)c1 | inactive: 2.19%
Cc1cc(C)cc(Oc2c(C(F)(F)F)oc3cc(OCC(=O)NC4CCCCC4)ccc3c2=O)c1 | inactive: -10.6%
CCOC(=O)c1cc(-c2ccccc2)n(-c2cccc(C(=O)Nc3cc(OC)cc(OC)c3)c2)c1C | inactive: -1.51%
CCOC(=O)c1sc(NC(=O)c2cc3nc(-c4ccccc4)cc(C(F)(F)F)n3n2)c(C(=O)OCC)c1C | inactive: -1.35%
Cn1c(=O)oc2cc(S(=O)(=O)N3CCC(C(=O)Nc4ccc(F)c(Cl)c4)CC3)ccc21 | inactive: -16.4%
Cc1ccc(C)c(CSc2nc3ccncc3n2CC(=O)Nc2ccc(N(C)C)cc2)c1 | inactive: 0.729%
Cc1cccc2nc(-c3cccc(NS(=O)(=O)c4ccccc4)c3)cn12 | inactive: 13.3%
CCC(C)NC(=O)CSc1nc2c(sc3ccccc32)c(=O)n1Cc1ccccc1Cl (stereo not given) | inactive: 0.807%
Clc1ccccc1CNc1ncnc2c1c(-c1ccccc1)cn2-c1ccccc1 | inactive: 9.51%
Cc1cc(C)c(NC(=O)Nc2ccc3snnc3c2)c(C)c1 | inactive: -0.334%
Cc1ccc(NC(=O)CSc2nc(-c3ccco3)nc3cc(=O)[nH]n23)cc1C | inactive: 7.38%
Cc1ccc(C)c(Cn2c3ccccc3c3cnn(CC(=O)NCc4ccccc4)c(=O)c32)c1 | inactive: -14.2%
Fc1ccccc1Cn1c(-c2ccccc2)nc2ccccc21 | inactive: -25.1%

Structure (SMILES) | activity change, negative = inhibition
COCCCNC(=O)CSc1nc2c(sc3ccccc32)c(=O)n1CCCC(=O)NCCOC | inactive: -18.8%
Cc1ccccc1OCc1nnc(SCc2cc(=O)c3cccc(F)c3[nH]2)n1C | inactive: -13%
CC(=O)c1ccc(NC(=O)COCc2cc(-c3ccco3)on2)cc1 | inactive: -3.93%
COc1cccc(N2CC(NC(=O)c3cccc(OC)c3OC)CC2=O)c1 (stereo not given) | inactive: 0.802%
COc1ccc2c(c1)c1c(c(=O)n(-c3cccc(Cl)c3)c(=O)n1CC(=O)N1CCCC1)n2C | inactive: -4.62%
Cc1cc(NC(=O)C2CCN(S(=O)(=O)c3ccc4[nH]c(=O)oc4c3)CC2)ccc1Br | inactive: -0.118%
CCC1CCCCN1CCCNC(=O)CN1C(=O)CSc2ccc(S(=O)(=O)N3CCOCC3)cc21 (stereo not given) | inactive: 10.7%
CCOC(=O)Cn1nc(C)c(NC(=O)COc2ccc(Cl)cc2C)c1C | inactive: 0.357%
COc1ccc(/C=C\C(=O)NC2CC(=O)N(c3ccccc3)C2)cc1OC (stereo not given) | inactive: -1.26%
COc1cc(NC(=O)c2nc(-c3ccncc3)no2)cc(OC)c1OC | inactive: -21.2%
Cc1ccc(NC(=O)C(Cc2c[nH]c3ccccc23)NC(=O)OCC(C)C)cc1 (stereo not given) | inactive: 1.15%
Cc1ccc(CN(C(=O)COc2c(C)cccc2C)C2CCS(=O)(=O)C2)o1 (stereo not given) | inactive: -2.97%
COC(=O)c1nc2n(n1)C(c1cc(OC)ccc1OC)C(C(=O)Nc1ccc(C)cc1C)=C(C)N2 (stereo not given) | inactive: 2.4%
Cc1ccc(Cl)cc1N1CCN(CCNC(=O)Nc2ccccc2Cl)CC1 | inactive: -20.3%
CC(C)(C)C(=O)NCCc1csc2nc(-c3ccc(F)cc3)nn12 | inactive: 7.35%
Cc1ccc2oc3c(c(=O)c2c1)C1(C(=O)N(C)c2ccccc21)N(CCCO)C3=O (stereo not given) | inactive: -5.1%
O=C(CCS(=O)(=O)c1cccc2nsnc12)Nc1ccc(F)cc1 | inactive: -22.3%
Cc1ccc(Cl)cc1NC(=O)C(=O)NCC(c1cccnc1)N1CCc2ccccc21 (stereo not given) | inactive: -2.18%
COc1ccc2oc(-c3ccc(C)c(NC(=O)COc4cc(C)cc(C)c4)c3)nc2c1 | inactive: -3.34%
CSc1cccc(NC(=O)C2CCN(C(=O)c3cnn(-c4ccccc4)c3-n3cccc3)CC2)c1 | inactive: -8.22%
Cc1ccc(-n2nnc(C(=O)Nc3cc(F)ccc3F)c2C)cc1F | inactive: 0.357%
COc1ccccc1NC(=O)c1sc2nc3c(cc2c1N)CCCCCC3 | inactive: -16.9%
O=C(c1ccccc1)N1c2ncnn2C2(CCCCC2)[C@@H]2CCCC[C@@H]21 | inactive: -0.421%
Cc1ccccc1C(=O)Nc1cc(-c2ccc(Cl)cc2)nn1-c1ccccc1 | inactive: -8.25%

Structure (SMILES) | activity change, negative = inhibition
Cc1ccc2c(c1)C(c1ccc(F)cc1)N(C(=O)c1ccc(OC(C)C)cc1)CC(=O)N2 (stereo not given) | inactive: -2.65%
Cc1nn(-c2ccc(N3CCOCC3)nn2)c(C)c1CCC(=O)NCc1ccc(F)cc1 | inactive: 3.29%
COc1cc2[nH]c(=O)n(CCCC(=O)N3CCN(c4cccc(C(F)(F)F)c4)CC3)c(=O)c2cc1OC | inactive: 6.14%
COc1ccc(C(=O)CSc2c(C(C)C)cnc3c2c(=O)n(C)c(=O)n3C)cc1 | inactive: 2.95%
Cc1ccc(NC(=O)C2CCN(c3cc(C)nc4c(-c5ccc(Cl)cc5)c(C)nn34)CC2)c(C)c1 | inactive: -5.94%
COc1ccccc1N1CCN(C(=O)CN2C(=O)COc3ccc(S(=O)(=O)N4CCC(C)CC4)cc32)CC1 | inactive: 0.622%
Cc1ccn2c(=O)cc(COc3ccc(NC(=O)c4ccccc4F)cc3)nc2c1 | inactive: -19.6%
CCOc1ccc(NC(=O)CSc2nc3c(oc4ccccc43)c(=O)n2CCOC)cc1 | inactive: -1.07%
CCOc1ccc(CCNC(=O)CN2N=C(c3ccccc3)CCC2=O)cc1OCC | inactive: 7.05%
CC(=O)c1ccc(NC(=O)CSc2nc(-c3cccc(F)c3)nc3c2c(=O)n(C)c(=O)n3C)cc1 | inactive: -13.3%
CN1C(C(=O)Nc2ccc(F)cc2F)=CC(c2ccc3c(c2)OCO3)=NS1(=O)=O | inactive: 1.14%
Cc1cc(C)cc(NC(=O)CN2C(=O)c3ccccc3Sc3ncccc32)c1 | inactive: -9.79%
CCCCN(CC)CCCNC(=O)c1cc2c(=O)[nH]c3ccccc3c2s1 | inactive: -8.78%
COc1ccc(CNC(=O)c2ccc3c(c2)nc2n3CCOC2)c(OC)c1 | inactive: -17.2%
Cc1ccc(-c2cc(C(F)(F)F)c(C#N)c(SCC(=O)Nc3ccccc3)n2)cc1 | inactive: 2.55%
CCOc1cccc(C2c3c(-c4cc(C)ccc4O)n[nH]c3C(=O)N2Cc2ccco2)c1 (stereo not given) | inactive: 2.72%
Cc1ccc(CNC(=O)c2cc3c(=O)n(Cc4cccnc4)ccc3nc2C)cc1 | inactive: -5.65%
CCOC(=O)C(C)NC(=O)c1c(C)oc2ncn(CC(C)C)c(=O)c12 (stereo not given) | inactive: -1.21%
CCOC(=O)C1CCN(C(=O)c2ccc3c(=O)n4nc(Nc5cc(C)ccc5C)sc4nc3c2)CC1 | inactive: -6.37%
COc1ccc(OC)c(CCNC(=O)c2csc3c2CCCCC3)c1 | inactive: -0.441%
CCC(=O)C1=C(c2cccc(OC)c2)N(C(=O)CC)n2c(nnc2C2CCCCC2)S1 | inactive: 0.476%
Cc1cccc(C)c1OCc1nc2c3c(-c4ccccc4)c(-c4ccccc4)oc3ncn2n1 | inactive: -10.2%
COc1cccc(NC(=O)C2CCN(c3nn4cc(-c5ccc(F)cc5)nc4s3)CC2)c1 | inactive: 2.29%
Cc1ccc(NC(=O)Cn2c(=O)oc3cc(S(=O)(=O)NCc4ccccc4)ccc32)cc1 | inactive: -1.12%

Structure (SMILES) | activity change, negative = inhibition
CCn1cc(C(=O)N2CCN(c3ccc(C(C)=O)cc3)CC2)c2cc(OC)c(OC)cc2c1=O | inactive: 2.37%
Cc1cccc2c1-c1sc(C(=O)N(C)c3cccc(C(F)(F)F)c3)cc1CO2 | inactive: -0.498%
Cc1csc2nc(COc3ccccc3NC(=O)c3ccc(C(C)(C)C)cc3)cc(=O)n12 | inactive: 12.6%
CCNC(=O)c1nn(-c2ccccc2C)nc1CO | inactive: 0.189%
CC(=O)C1=C(c2ccc(C)c(C)c2)N(C(C)=O)n2c(nnc2-c2ccc(Cl)cc2)S1 | inactive: -1.85%
Cc1cccc(CNC(=O)CCCn2c(=O)c3cccn3c3ccc(F)cc32)c1 | inactive: 0%
O=C(Cn1c(=O)n(-c2ccccc2Cl)c(=O)c2sc3ccccc3c21)NC1CCCCC1 | inactive: -11.8%
N#Cc1cccc(NC(=O)C2CCN(S(=O)(=O)c3ccc4[nH]c(=O)ccc4c3)CC2)c1 | inactive: 0.054%
Cc1ccccc1-n1nc(CO)c(C(=O)NCc2cccs2)n1 | inactive: 1.89%
Cc1ccc(CN2CCN(CC(=O)Nc3ccc(C)c(C)c3)S2(=O)=O)cc1 | inactive: -4.12%
Cc1c(NC(=O)c2nc3ccccc3nc2N2CCCCC2)cccc1[N+](=O)[O-] | inactive: -2.67%
Cc1ccccc1OC(=O)CSc1nnc(-c2ccc(F)cc2)o1 | inactive: 4.1%
CCOC(=O)c1cc(C)n(CC2CCC(C(=O)Nc3ccc(C)c(F)c3)CC2)c1C (stereo not given) | inactive: -6.34%
Cc1ccc(C(=O)Nc2ccc(-c3nc4ccccc4s3)cc2C)cc1C | inactive: 2.95%
COC(=O)c1ccccc1NC(=O)Nc1nnc(N2CCC(C)CC2)s1 | inactive: -6.14%
CCOc1cc(CNC(=O)NC2COc3ccc(OC)cc3C2)cc(OCC)c1OCC (stereo not given) | inactive: -0.297%
COc1ccc(N2CC(NC(=O)CCCc3ccccc3)CC2=O)cc1 (stereo not given) | inactive: 2.64%
Cc1c(Cl)cccc1NC(=O)CN(CCc1ccccc1)S(=O)(=O)c1ccccc1 | inactive: 18.9%
Cc1cccc(C(=O)N2CCc3cc(CNS(=O)(=O)c4ccc(Cl)s4)ccc32)c1 | inactive: -19.7%
Cc1ccccc1OCC(=O)Nc1ccc(-c2nc3ncccc3o2)cc1 | inactive: -1.8%
CCCCN(CC)CCNC(=O)c1cc2c(=O)[nH]c3ccccc3c2n1C | inactive: -4.81%
CCCCn1c(NCc2ccc(OC)cc2O)nc2ccccc21 | inactive: 5.56%
O=C(NCc1ccc(F)cc1)c1ccc2c(O)c(S(=O)(=O)c3ccccc3)c(=O)[nH]c2c1 | inactive: 3.83%
